In PubChem BioAssay AID1508624 (National Center for Advancing Translational Sciences (NCATS), 2021):
In all, about 48,000 compounds went through this assay and about 120 (0.25%) were called active. Roughly 4% stayed inconclusive and do not appear here. Calls follow the shape of the dose curve; as a rule, active = well fitted activation curve with a large enough effect; inconclusive = small, poorly fitted or top-dose-only effect, or another doubt; inactive = no such curve, though single readings can be large or run the other way. The list shows a part of the results.

Test: Primary qHTS for Identification of Small Molecule Activators of Huntingtin-Antisense Promoter Activity; also: nearly all actives have a fitted effect of over 55% in size
Settings: HEK293 HTT-AS promoter firefly luciferase reporter, 24 h; series mostly up to 57.5 µM; activity change, positive = activation: at the top concentration
Outline: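 HEK293 luciferase promoter-reporter cells (2,500/well) plated 24 h, then compounds added at up to 57.5 uM final for 24 h at 37 °C. Firefly luminescence by Dual-Glo, normalized to vehicle (0%) and zero RLU (-100%).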

Activity change, positive = activation, inactive:
CC(C)C(=O)OCc1cc(=O)n2nc(C3CCCCC3)sc2n1 11.6%
OC[C@H]1O[C@@H](Oc2ccc(O)cc2)[C@H](O)[C@@H](O)[C@H]1O -9.96%
COCCNc1ncnc2c1c(-c1ccccc1)cn2-c1cccc(Cl)c1 -11.6%
CCc1ccc(NCc2cc3cc4c(cc3n(CC(=O)Nc3ccc(F)cc3)c2=O)OCCO4)cc1 -16.1%
Cc1ccc(NC(=O)CSc2nnc(N)s2)c(C)c1 -1.52%
COc1ccc(CNC(=O)C2CCN(S(=O)(=O)c3cccc4nonc34)CC2)cc1OC -7.15%
Oc1c(C(c2ccccc2)N2CCN(c3ccccc3)CC2)sc2nc(-c3ccco3)nn12 (stereo unspecified) -8.52%
O=C(NCCc1ccccc1)C(=O)Nc1cccc(Br)c1 19.1%
Cn1c(CCNC(=O)c2ccco2)nc2cc(NC(=O)COc3ccc(Cl)cc3)ccc21 -12.8%
CO/N=C(\C(=O)O)c1csc(NC(=O)CCl)n1 2.87%
O=C(CSc1nc(=O)[nH]c2c1CCC2)NCc1ccccc1 -6.7%
C=CC1=C(C(=O)O)N2C(=O)[C@@H](NC(=O)C(=NO)c3csc(N)n3)[C@H]2SC1 -6.15%
Cc1ccc(C(=O)COC(=O)CCC(=O)Nc2ccc(Oc3ccccc3)cc2)cc1C -7.66%
CCc1ccc(C2c3c(oc4ccc(C)cc4c3=O)C(=O)N2c2nc(C)c(C)s2)cc1 (stereo unspecified) -5.43%
CCOc1cc(C2c3c(-c4ccccc4O)n[nH]c3C(=O)N2CCc2ccccc2)ccc1O (stereo unspecified) -34.7%
COc1ccc(-c2cc(C(F)(F)F)nc(SCCC(=O)Nc3c(C)cccc3C)n2)cc1 -8.28%
COc1cccc(-c2ccc3c(N)c(C(=O)Nc4ccc(C)c(F)c4)sc3n2)c1 -11.7%
COc1cc(NC(=O)Cn2cc(S(=O)(=O)c3ccccc3)c(=O)c3ccccc32)cc(OC)c1 1.99%
Cc1ccc(OCC(=O)Nc2ccc(C(=O)OCc3cc(=O)n4c(C)csc4n3)cc2)cc1 -15.4%
COc1ccc(-c2onc(C)c2C)cc1S(=O)(=O)NC1CCC(C)CC1 (stereo unspecified) -33.1%
O=C(NCC12CC3CC(CC(C3)C1)C2)c1cc2nc(-c3ccc(F)cc3)cc(C(F)(F)F)n2n1 -2.7%
O=C(Nc1ccc(F)cc1F)c1ccc(-n2cnnc2)cc1 -3.99% [at 11.5 µM, percent change from vehicle, -100% = no light]
Cc1cc(-n2c(C)nc3ccccc3c2=O)ccc1NC(=O)c1cccc([N+](=O)[O-])c1 -1.61%
Cc1cccc(NC(=O)CSc2cc(C)c3ccccc3n2)c1 1.71%
CCc1ccccc1NC(=O)Cc1c(C(=O)O)[nH]c2ccc(Cl)cc12 0.23%
Cc1ccc(Cn2c(CNC(=O)c3ccccc3Br)nc3cccnc32)cc1 -21.2%
COc1ccc(N2CCN(C(=O)Nc3cccc(C(F)(F)F)c3)CC2)cc1 -22.3%
CC(C)CNC(=O)C1=CC(c2ccc3c(c2)OCO3)=NS(=O)(=O)N1C -13.6%
Cc1ccc(-n2c(=O)c3oc4ccccc4c3n(CC(=O)Nc3ccccc3)c2=O)cc1C -25.8%
CCn1c(CN2CCOCC2)nc2cc(NC(=O)c3cc(OC)c(OC)c(OC)c3)ccc21 -9.57%
CC(=O)c1ccc(NC(=O)C2CCC(CNS(=O)(=O)c3ccc4c(c3)CCCC(=O)N4)CC2)cc1 (stereo unspecified) -0.985%
NCCCC(O)(P(=O)(O)O)P(=O)(O)O
CSc1nn(Cc2ccc(Br)cc2)c(N(C(C)=O)C(C)=O)c1S(=O)(=O)c1ccccc1 -39.1%
CC1CCN(C(=O)Cn2ncc3c4ccccc4n(Cc4ccc(Cl)cc4)c3c2=O)CC1 -12.4%
COc1ccc(-c2cc(C(=O)NCc3ccccc3)c3c(-c4ccccc4)[nH]nc3n2)cc1 -5.87%
COc1ccccc1N1CCN(C(=O)Cc2c(C(=O)O)c(C)cn2C)CC1 -14%
CCc1ccccc1NC(=O)C1CCCN(c2nnc(-n3c(C)ccc3C)s2)C1 (stereo unspecified) -12.5%
CCCCSCCCNC(=O)C1CCC(CNS(=O)(=O)c2ccccc2)CC1 (stereo unspecified) -34.8%
COc1ccc(-n2c(SCc3ccccc3F)nc3c([nH]c4ccccc43)c2=O)cc1 -27.9%
CCOc1ccc(NC(=O)c2ccc(F)c(S(=O)(=O)NCc3ccc4c(c3)OCO4)c2)cc1 -37%
CNC[C@H](O)[C@@H](O)[C@H](O)[C@H](O)CO -8.71%
O=C(NCCCc1nc2ccccc2n1Cc1ccc(Cl)cc1)c1ccco1 -34.7%
O=C(Cn1cc(S(=O)(=O)Cc2ccc(F)cc2)c2ccccc21)NCc1ccccc1Cl -16.4%
Cc1ccccc1CSc1nnc2[nH]c(=O)cc(C)n12 2.55%
Cc1oc2ncn(CC(C)C)c(=O)c2c1C(=O)NCCCN(Cc1ccccc1)C(C)C -21.1%
CCOc1ccc(NC(=O)CSc2nnc(-c3ccc(C)cc3)c(-c3ccc(C)cc3)n2)cc1 -14.5%
O=C(NC1CC(=O)N(c2ccc(Cl)cc2)C1)c1ccc(S(=O)(=O)N2CCCC2)cc1 (stereo unspecified) -30.4%
COc1ccc(CCNC(=O)CS(=O)Cc2nc(-c3ccc(C)cc3)oc2C)c(OC)c1 (stereo unspecified) -19.7%
COc1ccc(CCNC(=O)C(=O)NCC(c2ccco2)S(=O)(=O)c2ccccc2)cc1OC (stereo unspecified) -11.6%
O=C(Cn1c(=O)nc(-c2ccccc2)c2ccccc21)NCCCc1ccccc1 -7.81%
CCc1cccc(C)c1NC(=O)CSc1nnc(N)s1 -5.87%
CCOc1ccccc1NS(=O)(=O)c1cnc(N)nc1 -8.09%
Cc1ccccc1N1CCN(S(=O)(=O)c2nnc(NC(=O)c3ccc(Cl)cc3)s2)CC1 -28.6%
Nc1ccc(S(=O)(=O)Nc2cnc3ccccc3n2)cc1 3.23%
CCCC12CN3CC(C)(CN(C1)C3c1cn(C)c3ccccc13)C2=O (stereo unspecified) -3.26%
CCSc1ncc(Cl)c(C(=O)N2CCN(c3ccc(OC)cc3)CC2)n1 -26.5%
O=C1C(CCS(=O)c2ccccc2)C(=O)N(c2ccccc2)N1c1ccccc1 (stereo unspecified) -6.93%
O=c1[nH]c(=O)n([C@H]2C[C@@H](O)[C@@H](CO)O2)cc1C=CBr -8.95%
C=Cc1ccc(Cn2c(=O)n(-c3cccc(C)c3)c(=O)c3c2c2cc(C)ccc2n3C)cc1 -35.5%
O=C(Nc1ccc2c(c1)N(C1CCCC1)C(=O)c1ccccc1S2)c1ccc(F)cc1 -39.5%
CCN(CC)CCCNC(=O)c1ccc2nc(CCc3ccccc3)oc2c1 8.86%
